Test results taken from US20250361279A1 (Hoffmann-La Roche, published 2025).
Substitutions are numbered along the chain they refer to. In names and notes the source's numbering stands. Read-outs that look alike come from different tables or passages of the source.

B1: P1AH6021 (new PD1-IL7v, fully glycosylated, PD1-ILv2.6; IL7 E13K, G85E; (G2SG2)3 linker) (other)
light: DIVMTQSPDSLAVSLGERATINCKASESVDTSDNSFIHWYQQKPGQSPKLLIYRSSTLESGVPDRFSGSGSGTDFTLTISSLQAEDVAVYYCQQNYDVPWTFGQGTKVEIKRTVAAPSVFIFPPSDEQLKSGTASVVCLLNNFYPREAKVQWKVDNALQSGNSQESVTEQDSKDSTYSLSSTLTLSKADYEKHKVYACEVTHQGLSSPVTKSFNRGEC
heavy 1: EVQLLESGGGLVQPGGSLRLSCAASGFSFSSYTMSWVRQAPGKGLEWVATISGGGRDIYYPDSVKGRFTISRDNSKNTLYLQMNSLRAEDTAVYYCVLLTGRVYFALDSWGQGTLVTVSSASTKGPSVFPLAPSSKSTSGGTAALGCLVKDYFPEPVTVSWNSGALTSGVHTFPAVLQSSGLYSLSSVVTVPSSSLGTQTYICNVNHKPSNTKVDKKVEPKSCDKTHTCPPCPAPEAAGGPSVFLFPPKPKDTLMISRTPEVTCVVVDVSHEDPEVKFNWYVDGVEVHNAKTKPREEQYNSTYRVVSVLTVLHQDWLNGKEYKCKVSNKALGAPIEKTISKAKGQPREPQVCTLPPSRDELTKNQVSLSCAVKGFYPSDIAVEWESNGQPENNYKTTPPVLDSDGSFFLVSKLTVDKSRWQQGNVFSCSVMHEALHNHYTQKSLSLSPG
heavy 2: EVQLLESGGGLVQPGGSLRLSCAASGFSFSSYTMSWVRQAPGKGLEWVATISGGGRDIYYPDSVKGRFTISRDNSKNTLYLQMNSLRAEDTAVYYCVLLTGRVYFALDSWGQGTLVTVSSASTKGPSVFPLAPSSKSTSGGTAALGCLVKDYFPEPVTVSWNSGALTSGVHTFPAVLQSSGLYSLSSVVTVPSSSLGTQTYICNVNHKPSNTKVDKKV[sequence of human IgG1 Fc with changes omitted]GGSGGGGSGGGGSGGDCDIEGKDGKQYKSVLMVSIDQLLDSMKEIGSNCLNNEFNFFKRHICDANKEGMFLFRAARKLRQFLKMNSTGDFDLHLLKVSEETTILLNCTGQVKGRKPAALGEAQPTKSLEENKSLKEQKKLNDLCFLKRLLQEIKTCWNKILMGTKEH
B2: P1AH6005 (new PD1-IL7v, fully glycosylated, PD1-IL7v2.2; IL7 D74K, G85K; (G2SG2)3 linker) (other)
light: B1 light
heavy 1: B1 heavy 1
heavy 2: EVQLLESGGGLVQPGGSLRLSCAASGFSFSSYTMSWVRQAPGKGLEWVATISGGGRDIYYPDSVKGRFTISRDNSKNTLYLQMNSLRAEDTAVYYCVLLTGRVYFALDSWGQGTLVTVSSASTKGPSVFPLAPSSKSTSGGTAALGCLVKDYFPEPVTVSWNSGALTSGVHTFPAVLQSSGLYSLSSVVTVPSSSLGTQTYICNVNHKPSNTKVDKKV[sequence of human IgG1 Fc with changes omitted]GGSGGGGSGGGGSGGDCDIEGKDGKQYESVLMVSIDQLLDSMKEIGSNCLNNEFNFFKRHICDANKEGMFLFRAARKLRQFLKMNSTGKFDLHLLKVSEKTTILLNCTGQVKGRKPAALGEAQPTKSLEENKSLKEQKKLNDLCFLKRLLQEIKTCWNKILMGTKEH
B3: P1AH6007 (new PD1-IL7v, fully glycosylated; IL7 V15K, Q136K; (G2SG2)3 linker) (other)
light: B1 light
heavy 1: B1 heavy 1
heavy 2: EVQLLESGGGLVQPGGSLRLSCAASGFSFSSYTMSWVRQAPGKGLEWVATISGGGRDIYYPDSVKGRFTISRDNSKNTLYLQMNSLRAEDTAVYYCVLLTGRVYFALDSWGQGTLVTVSSASTKGPSVFPLAPSSKSTSGGTAALGCLVKDYFPEPVTVSWNSGALTSGVHTFPAVLQSSGLYSLSSVVTVPSSSLGTQTYICNVNHKPSNTKVDKKV[sequence of human IgG1 Fc with changes omitted]GGSGGGGSGGGGSGGDCDIEGKDGKQYESKLMVSIDQLLDSMKEIGSNCLNNEFNFFKRHICDANKEGMFLFRAARKLRQFLKMNSTGDFDLHLLKVSEGTTILLNCTGQVKGRKPAALGEAQPTKSLEENKSLKEQKKLNDLCFLKRLLKEIKTCWNKILMGTKEH
B4: P1AJ0773 (PD1-IL7var18_21, fully glycosylated; PD1 binder FV020519; IL7 K81E, G85E; (G2SG2)3 linker) (other)
light: B1 light with S55A
heavy 1: B1 heavy 1 with A49S, T50A
heavy 2: EVQLLESGGGLVQPGGSLRLSCAASGFSFSSYTMSWVRQAPGKGLEWVSAISGGGRDIYYPDSVKGRFTISRDNSKNTLYLQMNSLRAEDTAVYYCVLLTGRVYFALDSWGQGTLVTVSSASTKGPSVFPLAPSSKSTSGGTAALGCLVKDYFPEPVTVSWNSGALTSGVHTFPAVLQSSGLYSLSSVVTVPSSSLGTQTYICNVNHKPSNTKVDKKV[sequence of human IgG1 Fc with changes omitted]GGSGGGGSGGGGSGGDCDIEGKDGKQYESVLMVSIDQLLDSMKEIGSNCLNNEFNFFKRHICDANKEGMFLFRAARKLRQFLKMNSTGDFDLHLLEVSEETTILLNCTGQVKGRKPAALGEAQPTKSLEENKSLKEQKKLNDLCFLKRLLQEIKTCWNKILMGTKEH

How the values were obtained:
Experiment in all cases: cell-based or functional assay
[1] = molecular target: T1, IL-7 receptor (IL-7R alpha chain and common gamma chain) on human T cells (human, UniProt P16871 21-459; P31785 23-369)
T1 sequence (looked up) 1: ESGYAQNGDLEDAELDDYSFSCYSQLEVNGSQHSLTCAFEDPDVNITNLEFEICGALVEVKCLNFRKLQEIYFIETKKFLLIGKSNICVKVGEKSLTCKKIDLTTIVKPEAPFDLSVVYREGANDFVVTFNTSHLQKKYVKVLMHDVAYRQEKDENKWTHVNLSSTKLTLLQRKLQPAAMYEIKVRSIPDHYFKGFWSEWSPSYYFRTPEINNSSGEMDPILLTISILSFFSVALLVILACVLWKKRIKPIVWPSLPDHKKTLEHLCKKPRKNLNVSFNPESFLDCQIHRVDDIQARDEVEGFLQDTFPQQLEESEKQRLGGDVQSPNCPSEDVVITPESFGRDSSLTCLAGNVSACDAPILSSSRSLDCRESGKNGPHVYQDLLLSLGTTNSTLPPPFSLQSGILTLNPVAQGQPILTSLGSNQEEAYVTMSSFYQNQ
T1 sequence (looked up) 2: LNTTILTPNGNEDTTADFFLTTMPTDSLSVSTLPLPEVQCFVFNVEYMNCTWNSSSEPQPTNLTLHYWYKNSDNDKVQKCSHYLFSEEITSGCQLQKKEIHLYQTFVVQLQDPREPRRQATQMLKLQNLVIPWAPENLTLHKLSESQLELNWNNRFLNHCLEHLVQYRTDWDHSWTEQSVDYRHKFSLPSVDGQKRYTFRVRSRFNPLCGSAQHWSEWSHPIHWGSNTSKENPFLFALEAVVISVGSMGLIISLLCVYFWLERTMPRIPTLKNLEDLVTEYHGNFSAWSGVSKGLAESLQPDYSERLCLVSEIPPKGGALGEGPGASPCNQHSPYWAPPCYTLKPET

[2] = molecular target: T2, human PD-1 on activated CD4 T cells (human, UniProt Q15116 25-288)
[3] = molecular target: T1, IL-7 receptor (IL-7R alpha chain and …); remark: listed apart in the source
[4] = molecular target: T2, human PD-1 on activated CD4 T cells; remark: listed apart in the source
[5] = molecular target: T1, IL-7 receptor (IL-7R alpha chain and …); remark: listed apart in the source
[6] = molecular target: T2, human PD-1 on activated CD4 T cells; remark: listed apart in the source
[7] = molecular target: T1, IL-7 receptor (IL-7R alpha chain and …); remark: listed apart in the source
[8] = molecular target: T2, human PD-1 on activated CD4 T cells; remark: listed apart in the source
[9] = molecular target: T1, IL-7 receptor (IL-7R alpha chain and …); remark: listed apart in the source

Binder | Percentage of rescued Granzyme B production by Tconv (Treg suppression assay, 6 nM) [1] [%] | Percentage of suppressed Granzyme B production by Tconv (Treg suppression assay, 6 nM) [1] [%] | Cis-delivery: fold increase in EC50, EC50 [with PD1bl]/EC50 [no PD1bl] [6] [fold] | Delta AUC (PD1+ vs PD1bl.) [6] | Potency reduction to PD1-IL7wt: EC50 (PD1+)/EC50 (PD1-IL7wt) [7] [fold] | STAT-5P AUC, PD1+ CD4 T cells [7] | STAT-5P AUC, PD1-blocked CD4 T cells [7] | further results
B1 | 94.7 | 5.3 |  |  |  |  |  | Cis-delivery: fold increase in EC50, EC50 [with PD1bl]/EC50 [no PD1bl] [2]: 38 fold; Delta AUC (PD1+ vs PD1bl.) [2]: 32.4; Potency reduction to PD1-IL7wt: EC50 (PD1+)/EC50 (PD1-IL7wt) [3]: 10.8 fold; STAT-5P AUC, PD1+ CD4 T cells [3]: 74.7; STAT-5P AUC, PD1-blocked CD4 T cells [3]: 42.4; Cis-delivery: fold increase in EC50, EC50 [with PD1bl]/EC50 [no PD1bl] [4]: 52.5 fold; Delta AUC (PD1+ vs PD1bl.) [4]: 41; Potency reduction to PD1-IL7wt: EC50 (PD1+)/EC50 (PD1-IL7wt) [5]: 26.5 fold; STAT-5P AUC, PD1+ CD4 T cells [5]: 58.3; STAT-5P AUC, PD1-blocked CD4 T cells [5]: 17.4
B2 | 42.1 | 57.9 | 31.4 | 19.5 | 119 | 26.5 | 6.9 | 
B3 | 44.6 | 55.4 | 23.7 | 34.9 | 27.4 | 56.1 | 21.3 | 
B4 |  |  |  |  |  |  |  | Cis-delivery: fold increase in EC50, EC50 [with PD1bl]/EC50 [no PD1bl] [8]: 4760 fold; Delta AUC (PD1+ vs PD1bl.) [8]: 17.3; Potency reduction to PD1-IL7wt: EC50 (PD1+)/EC50 (PD1-IL7wt) [9]: 71.8 fold; STAT-5P AUC, PD1+ CD4 T cells [9]: 20; STAT-5P AUC, PD1-blocked CD4 T cells [9]: 2.7
